Test results: ChEMBL document CHEMBL4888484, “Replenishing the malaria drug discovery pipeline: Screening and hit evaluation of the MMV Hit Generation Library 1 (HGL1) against asexual blood stage Plasmodium falciparum ,using a nano luciferase reporter read-out” (2022)
The campaign covered roughly 150,000 compounds. About 540 (0.36%) showed an effect of 50% or more. The list shows a part of the results.

Tested on: Plasmodium falciparum
Assay: Primary screen in NF54 nanoGlo assay, in single point, at 2uM, 72h; a lower Z score goes with more inhibition
Type: functional, Erythrocyte
Settings: timepoint 72 hour

Structure (SMILES)	% Inhibition [%]	Z score
CC(C)c1csc(CN2C[C@H](C3CC3)[C@@H](N)C2)n1	10	-1.28
CS(=O)(=O)[C@H]1CCCN(C(=O)c2ccc3[nH]ncc3c2)CC1	-1	0.12
CN1CCCN(S(=O)(=O)c2cccnc2)c2cc(F)ccc21	-13	2.4
COc1ccc(NC(=O)Cn2c(C)ncc(-c3nc(-c4ccccc4)cs3)c2=O)cc1	-2	0.33
COCCN1C[C@@H](c2nc(C(=O)OC)c(C)[nH]2)CC1=O	2	-0.41
Cc1ccc([C@H](CNC(=O)COc2c(C)cccc2C)N(C)C)o1	-5	0.83
Cc1cc(C)n(CCN(C)C(=O)C2(C)COC2)n1	5	-0.81
CCCCC(=O)N1CCC(N(Cc2ccc(Cl)cc2)C(=O)CN(CCOC)S(=O)(=O)CCC)CC1	-2	0.31
CCOC(=O)[C@H]1CCCN(C(=O)c2c[nH]c(C(=O)N3CCCC3)c2)C1	15	-1.87
CCOC(=O)c1ccc(NC(=O)[C@@H]2CN(S(C)(=O)=O)c3cc(C)ccc3O2)cc1	0	-0.04
O=C(Cn1cccc1-c1nc(-c2ccc3c(c2)OCO3)no1)N1CCN(c2ccccc2F)CC1	-3	0.42
O=C(c1ccccn1)N1CCN(Cc2ccccc2F)[C@@H]2CS(=O)(=O)C[C@@H]21	-9	1.45
O=C(O)c1ccccc1N(Cc1ccc(Br)cc1)C(=O)c1ccco1	6	-0.8
S=c1sc2c(N3CCN(C/C=C/c4ccccc4)CC3)ncnc2n1-c1ccccc1	-9	1.05
CCN1CCN([C@H]2CCN(c3cc(Cl)ccc3C#N)C2)CC1	-9	1.34
CC1CCN(C(=O)c2nc(Cn3cnc4ccccc4c3=O)no2)CC1	9	-1.25
Cc1oc(-c2cc(C(F)(F)F)ccc2Cl)cc1-c1nnc(-c2ccco2)o1	-2	0.37
CC(=O)N1CCC(NC(=O)N2CCC[C@H]2c2cccs2)CC1	-16	2.04
CCN(C(=O)c1cnc(C)nc1C)c1cccc(F)c1	-10	0.99
COc1ccc(-c2nc(C)nc(C(F)(F)F)c2-c2csc(C)n2)c(O)c1	-10	0.9
CCc1cc(NCC2(N3CCCC3)CCCC2)ncn1	-6	0.95

Structure (SMILES)	% Inhibition [%]	Z score
COC(=O)c1ccccc1C(=O)N1CCC(Oc2ccc(C)nn2)CC1	-1	0.14
COc1ccc(S(=O)(=O)Nc2ccccc2C(=O)Nc2cccc(C)n2)cc1	-3	0.28
N#Cc1cc2n(n1)CCCN(CC(=O)NCC1CCCCC1)C2	-3	0.54
O=C(NC[C@@H]1CCCN2CCCC[C@H]12)c1cc2c(Cl)cccc2s1	-1	0.09
Cc1ccc(C)c(OCc2nc(CC(=O)NCc3ccco3)cs2)c1	-11	1.62
CCCCN=C(NCc1ccccc1)NC(C)C	7	-1.14
COC[C@H]1NC(=O)CC[C@H]1C(=O)N1CCN(c2ccccc2OC)CC1	-9	1.06
O=C1COc2c(cccc2NC(=O)N2CC(F)(F)OC(F)(F)C2)N1	-11	1.57
Cc1ccc(C(=O)Nc2cc3c4c(c2)C2CCCC2CN4CC2CCCC32)cc1 (stereo not drawn)	57	-4.94
O=C(O)c1cc(C2CC2)nc2c1c(C1CC1)nn2-c1ccc(F)cc1	-13	1.47
O=C1CCC(=O)N1c1ccc(-c2nc3ccccc3o2)cc1	-24	4.78
CC1Cc2ccccc2N1CC(O)COCc1ccco1 (stereo not drawn)	6	-0.77
CCO/N=C(/NCc1ccccc1)c1nonc1N	4	-0.57
C[C@H](NC(=O)c1cncn1-c1ccc(-c2cc(C(F)(F)F)cc(C(F)(F)F)c2)cc1)C(C)(C)C	9	-1.16
C=CCn1c(=O)c2sc(N(CC)CC)nc2n(CC(=O)Nc2ccccc2CC)c1=O	-13	1.13
CN1CCN(c2ncccc2CNC(=O)c2nccnc2N)CC1	-7	0.88
CCN1CCN(c2nc3ncn(CC(=O)Nc4cc(Cl)ccc4C)c(=O)c3s2)CC1	3	-0.43
COc1ccccc1[C@H](CNC(=O)CN1C(=O)CCC1=O)OC	21	-2.66
CNc1nc(C)cc(-c2cccc(C(=O)N[C@@H](C)c3csc(C)n3)c2)n1	4	-0.35
C[C@@H](CS(C)(=O)=O)NCC(C)(C)c1cccc(Br)c1	-4	0.49
O=C(Nc1snnc1C(=O)N1CCN(c2ccccn2)CC1)N1CCOCC1	4	-0.64

Structure (SMILES)	% Inhibition [%]	Z score
Cc1ccc(Cl)cc1CNC(=O)N1CCS(=O)(=O)CC[C@@H]1C	-1	0.19
O=C(CCc1ccsc1)N1CCC2(CC1)CC(=O)N(C[C@H]1CCCO1)C2	-2	0.5
CCc1ccc(-c2cnc(O)nc2)cc1	-12	1.95
COc1cncc(C(=O)N2CC(C)(C)[C@@H]2C(C)C)n1	-18	1.95
COCCN(C(=O)NCc1ncccn1)[C@H]1CCOC1	-9	1.36
O=S(=O)(Cc1ccc(Cl)cc1Br)NCC1CC1	-13	1.95
Cc1ccc(-c2cc(NC(=O)c3ccccc3)c(=O)n(CC(=O)Nc3ccc4c(c3)OCO4)n2)cc1	-7	1.21
CC[C@@H](C(=O)NCCN1CCCC1)n1cccn1	-26	2.64
Cc1ccc2c(c1)nc(CNC(=O)N1CCCCC[C@H]1c1c(C)n[nH]c1C)n2C	14	-1.37
C[C@@H]1CN(C[C@@H]2CN(CCOCc3ccccc3)C[C@@H]2CO)C[C@H](C)O1	27	0.41
Cc1ccc(Nc2nc(N)nc(CN3CCOCC34CCC4)n2)cc1	17	-2.02
CCCc1nc(C)c(CN2CCC[C@@](O)(c3ccccc3)CC2)o1	-8	1.02
COc1ccc(NC(C)=O)cc1NC(=O)CCCN1C(=O)c2ccncc2C1=O	-11	1.13
O=C(Cn1cc(C2CC2)nn1)NCC1CC12CCCc1ccccc12 (stereo not drawn)	-10	1.4
CC(C)[C@](C)(O)C#CCN1CCCCC1	0	0.06
O=C(Cn1c(=O)[nH]c2c(-c3ccccc3)c[nH]c2c1=O)N1CCOCC1	-3	0.4
C=CCNS(=O)(=O)c1ccc(OCCCC)c(C(C)C)c1	-24	2.78
COCCN1C[C@]2(CCCN(C(=O)c3n[nH]nc3C)C2)CCC1=O	-3	0.33
CC1CCC(C(=O)NCC(O)C(C)(C)C)O1 (stereo not drawn)	-18	1.58
CCc1nnc([C@@H]2CC(F)(F)CN2Cc2cnn(C(C)C)c2)o1	-3	0.56
Cc1cc(C)n([C@@H](C)c2nc(CC(C)C)n[nH]2)n1	7	-1.42

Structure (SMILES)	% Inhibition [%]	Z score
N#Cc1cccc(OS(=O)(=O)c2ccc3c(c2)OCCO3)c1	-17	1.46
COCC1(CNC(=O)[C@H]2CC[C@@H](O)CC2)CCC1	-9	1.2
O=C(COc1ccccc1)n1nc(NCc2ccccc2Cl)nc1NCc1ccccc1Cl	-7	0.86
O=C(CC1CC2CCC1C2)N1CCC(O)CC1 (stereo not drawn)	0	0.05
CC(C)C(c1ccccc1)C(NC(=O)OC(C)(C)C)C(=O)O (stereo not drawn)	-8	1.41
CC(NCC(C)(O)c1cnn(C)c1)c1cc2c(s1)CCC2 (stereo not drawn)	-16	1.58
CC1([C@H]2CCCN(Cc3nsc4ccccc34)C2)OCCO1	1	-0.13
CCOCCCN/C(=N/c1ccc(C(=O)O)cc1)N1CCN(c2ccccc2F)CC1	-1	0.13
O=C1CC2CCC(CN1)N2C(=O)c1ccon1 (stereo not drawn)	-3	0.58
Cc1nnc(CC(=O)NC2CC(OCc3ccccc3)C2(C)C)o1 (stereo not drawn)	29	-0.73
C[C@H]1CCCCN1C(=O)CN1CCN(CC(=O)NCc2cccs2)CC1	0	-0.01
O=C(CN1C(=O)COc2cccnc21)N1CCO[C@H](c2ccccc2)C1	-16	2.7
COCCN1C[C@@H](Cc2cc(C)nc(C(C)C)n2)CC1=O	4	-0.72
C[C@H]1CN(C)c2ccccc2CN1C(=O)NC1CCCC1CNS(C)(=O)=O (stereo partly drawn)	3	-0.64
COCCc1noc(-c2nn(-c3ccccc3F)c3c2CCC3)n1	-10	0.98
CCc1nc(C)sc1C(=O)N1CCS(=O)(=O)CC1	-12	2.34
CS(=O)(=O)N1CCN(C(=O)c2cc3cc(C(F)(F)F)cnc3[nH]2)CC1	6	-0.99
O=C(N1CCOCC1)N1CC[C@H](Oc2ncc(F)cn2)C1	-11	1.65
CCOc1cccc(-n2cc(-c3ccccc3)nc2NC(=O)CN(CC2CC2)C(=O)c2ccc(C)cc2)c1	-7	1.04
CC(C)(C)c1ccc(Cn2c(C(N)=O)cc3cc(NC(=O)c4ccc(C(C)(C)C)cc4)ccc32)cc1	-3	0.47
Cc1oc2c(c1C(=O)N1CCCC1)CN(Cc1cccc(F)c1)CC2	4	-0.43
